Read counts are not given, so values of variants with three or more changes are uncertain.
B1: LINE1-mini (parent)
chain: GGCAGAGCUCAACACAGCGUGGCAAAGUGGCUGUGGCUAGACUGCC

Variants of: B1
Test: self-cleavage, relative activity (ratio to wild type); higher = more cleavage; in vitro, sequencing; the parent is a self-cleaving ribozyme
Work on UGCAGAGCUCCACACAGCGUGGCAAAGUGGUUGUGGCUAGACUGCC yielded a self-cleavage of 0. In the case of UGCAGAGCUCCACACAGCGUGUCAAAGUGGCUGUGACUAGACUGCC, the self-cleavage is reported as 0.02. In the case of UGCAGAGCUCCACACAGCGUGGCAAAGAGGCUGUGCCUAGACUGCC, the self-cleavage is reported as 0.01. Variant UGCAGAGCUCGACCCAGCGUGGCAAAGUGGCUGUGGCUAGACUGCC has a self-cleavage of 0.01. With UGCAGAGCUCGACACAGCGUGGCCAAGUGGCUGUGGCUAGACUGCC the self-cleavage was 0.02. With UGCAGAGCUCGAGACAGCGUGGCAAAGUGGCUGUGGCUAGACUGCC the self-cleavage was 0. UGCAGAGCUCGACAUAGCGUGGCUAAGUGGCUGUGGCUAUACUGCG gave a self-cleavage of 0. For UGCAGAGCUCGACACAGCGUGGCAAAGUGGCUGUGGCUAGAACGCC, the self-cleavage was 0. UGCAGAGCUCGACACAGCUUGGUAAAGUGGCUGUGGCUAGAGUGCC showed a self-cleavage of 0. Variant UGCAGAGCUCGACACAGCGUCGCAAUGUGGUUGUGCCUAGACUGCC has a self-cleavage of 0. Variant UGCAGAGCUCUACACAGCGUGGCAUAGUGGCUGUGGCUAGACUGGC has a self-cleavage of 0.01. For UGCAGAGCUCUACACAGCGUGGCAAAGUGGCUGUGGCUCGACUACC, the self-cleavage was 0.01. With UGCAGAGCUCUACACAGCGUGGUAAAGUGGCUGUGGCUUGACUACC the self-cleavage was 0.01. In the case of UGCAGAGCUCUACACAGCGUGGCAAAUUGGCUGUGGCUAGACUGCC, the self-cleavage is reported as 0.03. UGCAGAGCUCUACACAGCGUGGCAAAGUGGCUGUGGCUAUACUGCC showed a self-cleavage of 0.04. In the case of UGCAGAGCUCACCACAGCGUGGCGAAGUGGCUUUGGCUAGACUGCC, the self-cleavage is reported as 0.02. Variant UGCAGAGCUCACCACAGCGUGGCAAAGUGGCUGUGGCUAGUCUGCC has a self-cleavage of 0.01. For UGCAGAGCUCACCACAGCGUGGCAAAGUCGCUAUGGCUAGACUUCC, the self-cleavage was 0. Variant UGCAGAGCUCAGCACAGGGUGGCAAAGCGUUUGUGGCGAGAGUGCU has a self-cleavage of 0. Variant UGCAGAGCUCAGCACAGCGUUGCAAAGUGGCUGUGGCUAGACUGCC has a self-cleavage of 0. For UGCAGAGCUCAGCACAGCGUGGCAAAGCGGCUGUGGCUAGACUGCC, the self-cleavage was 0.06. UGCAGAGCUCAUCACAGCGUGGCAAAGUGGCUGUGGCUAGCCUGCC showed a self-cleavage of 0.03. In the case of UGCAGAGCUCAUCACAGCGUGGCAAAGUGGCUGUGGAUAGACUCCC, the self-cleavage is reported as 0. Work on UGCAGAGCUCAUCACAGCGUGGCAAAACGGCUGAGGUUAGACUGCC yielded a self-cleavage of 0.01. For UGCAGAGCUCAACCCAGCGUGGCAAAGUGGCUGUGGCUAGCCUGCC, the self-cleavage was 0.01. For UGCAGAGCUCAACCCAGCCUGCAAAAAUGACUGUGGCUAGACUGCC, the self-cleavage was 0. In the case of UGCAGAGCUCAACGCAGCGUCGCAAAGUUGCUGUGGCUAGACUGGC, the self-cleavage is reported as 0.04. In the case of UGCAGAGCUCAACGCAGCGUGGCAAAGUGGCUGUGUCUAGACUGCC, the self-cleavage is reported as 0.07. In the case of UGCAGAGCUCAACGCAGCGUGGCAAAGUGGCUGUGGCUAGACUUUU, the self-cleavage is reported as 0.05. For UGCAGAGCUCAACGCAGCGUGGCAAAGUGGCUGAGGCUAGACUGCC, the self-cleavage was 0.03. In the case of UGCAGAGCUCAACUCAGCGUGGCUAAGUGUCUGUGGCUAGAUUGCC, the self-cleavage is reported as 0.04. For UGCAGAGCUCAACUCAGCGUGGCAGAGUGGCUGUGGCUAGACUGCC, the self-cleavage was 0.01. In the case of UGCAGAGCUCAACUCAGGGUGGCAAAGUGGCUGUGGCUAGACUGCC, the self-cleavage is reported as 0.09. UGCAGAGCUCAACUCAGCGUGGCAAAGUGGCUGUGGCUAGAGUGUC showed a self-cleavage of 0.16. Variant UGCAGAGCUCAACUCAGCAUGGCAAAGUGGCUGUGGCUAGACUGCC has a self-cleavage of 0.08. With UGCAGAGCUCAACUCAGCGUGGCAAAGCGGCUGUGGCUAGACCGCC the self-cleavage was 0.01. For UGCAGAGCUCAACACCGCGUGGCAAAGUGGCUGUGGCUAGACCGAC, the self-cleavage was 0.05. Variant UGCAGAGCUCAACACGGCGUGGCAAAGUGGCUGUGGCUAGACUGUC has a self-cleavage of 0.07. Variant UGCAGAGCUCAACACUGCGUGGGAAAGUGGCUGUGGCUAGACAGCC has a self-cleavage of 0.03. UGCAGAGCUCAACACUGCGUGGUAAAGUGGCUGUGGCUACACUGCC showed a self-cleavage of 0.03. With UGCAGAGCUCAACACUGCGGGGCUAAGUUUCUGUGGCUAGACUGCC the self-cleavage was 0.03. Work on UGCAGAGCUCAACACAGCGUGGCCAGGUGGCUGUGGCUAGAAUGCC yielded a self-cleavage of 0.06. In the case of UGCAGAGCUCAACACAGCGUGGCGAAGUGGUUCUGGCUAGAAUGCC, the self-cleavage is reported as 0.02. UGCAGAGCUCAACACAGCGUGGCUUAGUGGCUUUGGCGAGACUGCC gave a self-cleavage of 0.03. For UGCAGAGCUCAACACAGCGUGGCUAAGUGGCGGUGGUCAGACUGCC, the self-cleavage was 0.02. UGCAGAGCUCAACACAGCGUGGCAUAGUGGCUGUGGCUAGACUGAC showed a self-cleavage of 0.47. Work on UGCAGAGCUCAACACAGCGUGGCAAGGUGGCUGUGGCUAGACUGUC yielded a self-cleavage of 0.38. Variant UGCAGAGCUCAACACAGCGUGGCAAGGUGGCUGUGGCUAUACUGCC has a self-cleavage of 0.05. Work on UGCAGAGCUCAACACAGCGUGGCAAAGUGGCUGUGGCUAGGAUGCC yielded a self-cleavage of 0.08. UGAAGAGCUCGACACAGCGUGGCGAAGUGGCUGUGGCUAGACUGCC gave a self-cleavage of 0.08. Work on UGAAGAGCUCAACACAGCGUGGCCAAGUUGCUGUGGCUAGAGUGCC yielded a self-cleavage of 0.21. UGAAGAGUUCAACUCAGCGUGGGAAAGUCACUGUGGCUAGACUGCC gave a self-cleavage of 0.05. In the case of UGAAGAGCUUAGCACAGCGUGGCAAAGUGGCUGUGGCUAGACUGCC, the self-cleavage is reported as 0.05. For UGAAGAGCUUAACACAGCGUGGCAAAGUGGCUGAGGCUAGACUGCC, the self-cleavage was 0.12. With UGAAGAUCUCAACACAGCGUGGCAAAGUGGCUGUGGCUAGACAGCG the self-cleavage was 0.83. With UGAAGAGCUCAACACAGCGUGACAAAGCGGCUGUGGCUAGACUGCC the self-cleavage was 0.14.

— the RNAGym collection of RNA variant scans (doi:10.7554/elife.90254)
